According to PubChem BioAssay AID624202 (National Center for Advancing Translational Sciences (NCATS), 2012):
About 4,000 (1.1%) of roughly 380,000 compounds were called active. The inconclusive results got no clear call from the source; some entries with a clear call stand among them for comparison. Calls come from the whole dose curve; as a rule, active = well fitted activation curve with a large enough effect; inconclusive = small, poorly fitted or top-dose-only effect; inactive = no such curve, though single readings can be large or run the other way. Potencies beside an inconclusive call are fits to weak or partial responses and may not hold up.
Potency is the fitted concentration of half-maximal effect; tags give direction and shape of the fitted curve.

Assay: qHTS Assay to Identify Small Molecule Activators of BRCA1 Expression; note: nearly all actives have a fitted effect of over 80% in size
Details: MCF7-BRCA1-FFLuc reporter, luminescence, 48 h; activation: at 46.1 µM (top of the series), scaled: vehicle 0%, 10 µM genistein 100% unless noted
Summary of the method: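 48 h compound treatment of MCF7-BRCA1-FFLuc cells (phenol-red free MEM, 37 °C), then 15 min with luciferase substrate and luminescence imaging.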
In the case of `COc1ccccc1Nc1nc(N)nc(CSC(=S)N2CCCCC2)n1`, the Potency is reported as inconclusive: 15.8 µM [activator, partial curve, poor fit].
With `CCCn1nc(NC(=O)c2ccco2)c2cc3cc(C)ccc3nc21` the Potency was “inactive”.
For `Cn1cc(Cl)c(C(=O)Nc2nc3ccc(Cl)cc3s2)n1`, the Potency was active: 12.6 µM.
In the case of `COCCN1CCN(C(=O)c2cc(COc3ccc(Cl)cc3OC)on2)CC1`, the Potency is reported as inconclusive: 20 µM [activator, single point].
For `O=C(NCc1ccccc1Cl)c1ccc2ccccc2n1`, the Potency was inconclusive: 12.6 µM [activator, partial curve, poor fit].
With `COc1ccccc1OCC(=O)N/N=C1\CCc2ccccc21` the Potency was inconclusive: 8.91 µM [activator, partial curve, poor fit].
In the case of `Oc1ccc(Cl)cc1CNCC1CCCCC1`, the Potency is reported as inconclusive: 35.5 µM [activator, single point].
With `Cc1cc(C(=O)COC(=O)c2ccc(O)cc2O)c(C)n1-c1ccccc1` the Potency was inconclusive: 3.98 µM [activator, partial curve, poor fit].
For `CN(C)C(=O)c1cc(C(=O)c2ccc(C(F)(F)F)cc2)c[nH]1`, the Potency was active: 10 µM.
For `CCOc1ccc(/C=C/C(=O)c2ccccc2)cc1`, the Potency was active: 12.6 µM.
In the case of `Cc1ccc(S(=O)(=O)Nc2c(C)n(C)n(-c3ccccc3)c2=O)cc1C(=O)NCc1ccco1`, the activation is reported as inconclusive: -70% [activator].
For `Cn1c(-c2ccc(C=O)s2)nc2ccccc21`, the Potency was active: 11.2 µM.
In the case of `COc1ccc(C(=O)n2nc(C)cc2Nc2ccccc2)cc1`, the Potency is reported as inconclusive: 25.1 µM [activator, single point].
For `COC(=O)c1ccc(COC(=O)CCC(=O)c2cccs2)cc1`, the Potency was active: 10 µM.
In the case of `COc1ccc(C(=O)Nc2cc(OC)cc(OC)c2)cc1`, the Potency is reported as inconclusive: 2.51 µM [activator, full curve, poor fit].
For `CN(C)c1ccc(CC(=O)c2nc3ccccc3s2)cc1`, the Potency was inconclusive: 17.8 µM [activator, partial curve, poor fit].
For `COc1ccc(N=Nc2c(N)nn(C)c2N)cc1`, the Potency was active: 2.51 µM.
For `CCc1ccc(C(=O)Nc2cc(C)on2)o1`, the Potency was inconclusive: 22.4 µM [activator, single point].
In the case of `COc1ccc(CN=C2NN=C(c3cccc(OC)c3)CS2)cc1`, the Potency is reported as inconclusive: 12.6 µM [activator, partial curve, poor fit].
In the case of `Cc1ccc(-c2nnc(CSc3nnc(COc4ccccc4)n3-c3ccccc3)o2)cc1`, the Potency is reported as “inactive”.
In the case of `CCCC(=O)Nc1sc(C(=O)OC)c(C)c1C(N)=O`, the Potency is reported as “inactive”.
In the case of `CCOc1ccc(-c2nc(CSc3nnc(N)s3)cs2)cc1`, the Potency is reported as active: 3.98 µM.
With `Cc1ccccc1C(=O)NNC(=O)c1ccc(Br)cc1` the Potency was inconclusive: 12.6 µM [activator, partial curve, poor fit].
For `O=C(NCCCn1ccnc1)c1ccc(-c2cccc(Cl)c2Cl)o1`, the Potency was “inactive”.
In the case of `COc1ccccc1C(=O)COC(=O)c1ccc(N(C)C)cc1`, the Potency is reported as active: 3.98 µM.
For `c1cncc(-c2noc(C34CC5CC(CC(C5)C3)C4)n2)c1`, the Potency was active: 12.6 µM.
With `CCOc1ccc(NC(=O)Nc2ccccc2SC)cc1` the Potency was active: 2.82 µM.
In the case of `O=C(NCCN1Cc2ccccc2C1=O)c1cccs1`, the Potency is reported as inconclusive: 15.8 µM [activator, single point].
In the case of `FC(F)(F)c1ccccc1NC(=S)Nc1cccc2cnccc12`, the Potency is reported as “inactive”.
For `COc1ccccc1C(=O)NCC(=O)NNC(=O)C1COc2ccccc2O1` (stereo not given), the Potency was “inactive”.
With `Cc1ccc(CSc2nc3ncccc3[nH]2)cc1` the Potency was inconclusive: 2.51 µM [activator, partial curve, poor fit].
With `C[C@@H]1Cn2cnc(C(=O)N[C@@H](C)c3ccccc3)c2C(=O)N1` the Potency was “inactive”.
With `CCCOC(=O)c1ccc(NC(=O)c2cnccn2)cc1` the Potency was active: 10 µM.
For `CCOC(=O)C1CCCN(c2c(NCCCN3CCCC(C)C3)c(=O)c2=O)C1` (stereo not given), the Potency was inconclusive: 15.8 µM [activator, single point].
In the case of `O=C(COC(=O)c1c(F)cccc1Cl)NC(=O)Nc1ccc2c(c1)OCCO2`, the Potency is reported as inconclusive: 35.5 µM [activator, single point].
With `Cc1cc(C)c(S(=O)(=O)c2ccccc2C)c(SCC(C)C)n1` the Potency was “inactive”.
For `CC(C)(C)NC(=O)N1CCN(c2nc3ccc(Cl)cc3s2)CC1`, the Potency was active: 10 µM.
In the case of `CCCCOc1ccc(-c2nnc(N)s2)cc1`, the Potency is reported as active: 6.31 µM.
With `O=c1ccc2ccc(OCCOc3cccc(Cl)c3)cc2o1` the Potency was inconclusive: 12.6 µM [activator, partial curve, poor fit].
In the case of `Cc1nc2cc(-c3ccc(F)cc3)[nH]n2c(=O)c1C`, the Potency is reported as inconclusive: 2 µM [activator, full curve, poor fit].
For `O=C(/C=C/c1ccccc1)c1ccc(NC2=NCCCS2)cc1`, the Potency was inconclusive: 3.55 µM [activator, partial curve, poor fit].
With `CCOC(=O)c1sc(-c2ccc(OC)cc2)cc1N` the Potency was inconclusive: 1.58 µM [activator, partial curve, poor fit].
With `CN1CCC[C@H]1CCNc1ccc2c(=O)c3ccccc3n(C)c2c1` the Potency was inconclusive: 2.51 µM [activator, full curve, poor fit].
With `CCC(=O)OCCNc1cc(SCCC(=O)OC)c2nonc2c1[N+](=O)[O-]` the Potency was “inactive”.
With `O=C(Nc1ccon1)c1cc2c(s1)CCCC2` the Potency was inconclusive: 3.55 µM [activator, full curve, poor fit].
With `O=C(Nc1ccc(F)cc1)c1cc2c(s1)CCCC2` the Potency was inconclusive: 10 µM [activator, partial curve, poor fit].
In the case of `COc1ccc2c(c1)C1OCCC1C(c1ccco1)N2` (stereo not given), the Potency is reported as inconclusive: 3.16 µM [activator, partial curve, poor fit].
With `C#CC(C)(C)NC(=O)c1ccc(-c2ccccc2F)cc1` the Potency was active: 12.6 µM.
For `Nc1nonc1-c1noc(N2CCCCC2)n1`, the Potency was active: 10 µM.
For `CCc1ccc(NC(=O)CNC(=O)Cn2ccc3ccccc3c2=O)cc1`, the Potency was “inactive”.
